PubChem BioAssay AID624418 (National Center for Advancing Translational Sciences (NCATS), 2012)
Among all 410,000 compounds or so, about 530 (0.13%) were called active. This list was built around the results that the source calls inconclusive (neither active nor inactive); the mix of calls is not that of the screen. Calls follow the shape of the dose curve; as a rule, active = well fitted inhibition curve with a large enough effect; inconclusive = small, poorly fitted or top-dose-only effect, or another doubt; inactive = no such curve, though single readings can be large or run the other way. Where the call is inconclusive, the potency comes from a doubtful curve fit.

test: qHTS of GLP-1 Receptor Inverse Agonists: Cytotox Screen; details: HEK293 cAMP-luciferase reporter cells, luminescence, 24 h; activity change, negative = inhibition: at 38.3 µM (top of the series) unless noted
Method in brief: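 Cells in DMEM/10% Nu serum/1% pen-strep, 1536-well format. Pre-incubated 12 h, dosed with 23 nL compound, incubated a further 24 h. Luciferase detection, 12 min at room temp, luminescence.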
% is scaled to controls: 0 for no effect and ±100 for the full control effect; potency is read from the fitted curve at half-maximal effect.

Compound | Potency | activity change, negative = inhibition
O=C(NC(=S)N1CCN(c2ccc([N+](=O)[O-])cc2)CC1)c1ccco1 | inconclusive: 28.2 µM [inhibitor, single point] | –
Cc1ccc(C(C)(C)C)c(OCCCCN2CCCC2)c1 | inconclusive: 10 µM [inhibitor, single point] | –
S=c1[nH]nc(SCc2ccccc2)c2[nH]cnc12 | inconclusive: 1.78 µM [inhibitor, full curve, poor fit] | –
CCc1cc2ccc(C)c(C)c2nc1SCC(=O)Nc1cc(C)on1 | inactive | –
Cc1[nH]c2ccccc2c1C(=O)CN1CCN(C/C=C/c2ccccc2)CC1 | inconclusive: 7.08 µM [inhibitor, partial curve, poor fit] | –
COc1ccc(/C=N/NC(=O)CCn2cnc(-c3ccccc3)c2-c2ccccc2)cc1 | inconclusive: 1.12 µM [inhibitor, full curve] | –
COc1cccc(/C=C2/Sc3ccc(C(=O)NCCCN4CCCC4)cc3NC2=O)c1 | inconclusive: 20 µM [inhibitor, single point] | –
Fc1ccc(Cc2nnc(-c3cccs3)o2)cc1 | inactive | –
O=C(Nc1nc(-c2cccs2)cs1)c1cccc(S(=O)(=O)N2CCCCC2)c1 | inactive | –
COc1ccc(C)c2sc(N(CCCN(C)C)C(=O)c3ccc4c(c3)OCCO4)nc12 | inconclusive: 10 µM [inhibitor, partial curve, poor fit] | –
CCOC(=O)C1=C(c2ccccc2)NC(N)=NC1c1ccc(OCc2ccc(C(=O)OC)cc2)cc1 (centres undefined) | inconclusive: 28.2 µM [inhibitor, single point] | –
COc1ccc(-n2cc(CNC3CCN(C)CC3)c(-c3cccc(F)c3)n2)cc1 | inconclusive: 12.6 µM [inhibitor, single point] | –
COc1ccc2c(c1)CC(N1CCN(C)CC1)c1cc(OC)ccc1S2 (centres undefined) | inconclusive: 11.2 µM [inhibitor, single point] | –
C=CCN(C(=O)CCS(=O)(=O)c1cccc2nsnc12)c1ccccc1 | inconclusive: 28.2 µM [inhibitor, single point] | –
Fc1ccc(C(c2nnnn2Cc2cccs2)N2CCN(C3CCCC3)CC2)cc1 (centres undefined) | inconclusive: 22.4 µM [inhibitor, single point] | –
COc1ccc(C(O)(C2CCCCC2)C(CN2CCCC2)c2ccccc2)cc1 (centres undefined) | – | inconclusive: -71.7% [inhibitor]
O=C(NCc1ccccc1)c1nnc(Cc2cccc(F)c2)o1 | inactive | –
O=C(O)CC(NC(=O)C12CC3CC(CC(C3)C1)C2)c1ccc(Cl)cc1 (centres undefined) | inconclusive: 28.2 µM [inhibitor, single point] | –
COc1cccc(OC)c1OCCNC(C)(C)C | inactive | –
COc1ccc(NC2=NC(=S)N(c3ccc(C)cc3)C23CCCCC3)cc1 | inactive | –
O=[N+]([O-])c1ccc(/C=N\N2CCN(Cc3ccccc3Cl)CC2)cc1 | inactive | –
COc1cc(C2c3cc4c(cc3OC(NNC(N)=S)C2C)OCO4)cc(OC)c1OC (centres undefined) | inconclusive: 3.16 µM [inhibitor, partial curve, poor fit] | –

Compound | Potency | activity change, negative = inhibition
Cc1ccc(N(C(C)C(=O)N2CCCCC2)S(C)(=O)=O)cc1C (centres undefined) | inconclusive: 8.91 µM [inhibitor, partial curve] | –
Brc1ccc(/C=N/Nc2ccccn2)cc1 | inconclusive: 22.4 µM [inhibitor, single point] | –
CCCCCCCCN1C(=O)[C@H](CC(=O)NCc2ccccc2)C[C@@]2(C(=O)OCC)CCCC=C12 | inactive | –
COc1cc(/C=N/OCC(=O)Nc2ccc(OC(F)F)cc2)ccc1OCc1ccccc1 | inactive | –
COc1cccc(Cn2c(=O)n(-c3cccc(Cl)c3C)c(=O)c3c4c(sc32)CN(C(C)=O)CC4)c1 | inactive | –
CSc1nc(=O)n(-c2ccccc2)c(C)c1C(C)=O | inactive | –
COc1ccc(Br)cc1/C=N/N1CCN(Cc2ccccc2)CC1 | inactive | –
Cc1ccc(C)c(Nc2cc(C)nc3ccccc23)c1 | inconclusive: 11.2 µM [inhibitor, single point] | –
O=C(NC1=CC(=O)c2ccccc2C1=O)c1ccccc1 | inconclusive: 2.82 µM [inhibitor, full curve, poor fit] | –
Cc1ccc(-n2cnc3cc(NCc4cccs4)ccc32)cc1 | inactive | –
COc1cc(Cl)c(C)cc1NC(=O)COc1ccccc1[N+](=O)[O-] | inactive | –
C#CCOCCOCCOCCNc1nc(N2CCN(C(=O)[C@H]([C@@H](C)O)n3cc(CCCCN)nn3)CC2)nc(N2CCN(C(=O)[C@H](C)n3cc(CCC(=O)O)nn3)CC2)n1 | inconclusive: 0.501 µM [inhibitor, full curve, poor fit] | –
C[C@]1(O)CC(=O)C=C[C@H]1Nc1ccccc1 | inconclusive: 28.2 µM [inhibitor, single point] | –
CC1=Nc2cc(C(=O)N3CCCC3)ccc2Sc2c(C)ccc(C)c21 | inconclusive: 20 µM [inhibitor, single point] | –
CCN(CC)CCOC(=O)c1ccc(NC(=O)c2ccc(Cl)c(S(=O)(=O)N3CCCCCC3)c2)cc1 | inconclusive: 28.2 µM [inhibitor, single point] | –
O=C(C=Cc1ccccc1)CC(c1ccccc1)N1CCOCC1 (centres undefined) | inconclusive: 10 µM [inhibitor, partial curve] | –
Cn1nc(-c2ccc(Cl)cc2)c2cc(C(=O)NCCCN3CCCC3)sc21 | inconclusive: 28.2 µM [inhibitor, single point] | –
Cc1c2cnn(CC(=O)NCc3ccccc3)c(=O)c2c(C)n1Cc1cccc(Cl)c1 | inconclusive: 22.4 µM [inhibitor, partial curve, poor fit] | –
O=C(COc1ccc(Cl)cc1Br)NCC(c1ccco1)N1CCCC1 (centres undefined) | inconclusive: 20 µM [inhibitor, partial curve, poor fit] | –
Cc1cc(C)cc(OCC(=O)OC/C(O)=C(\C#N)c2nc3ccccc3[nH]2)c1 | inconclusive: 6.31 µM [inhibitor, partial curve, poor fit] | –
CCOc1ccc(CN(C)Cc2cc(=O)oc3c(C)c(C)ccc23)cc1OC | inactive | –
Cc1cccn2c(=O)c(/C=C(\C#N)C(=O)NC3CCS(=O)(=O)C3)c(N3CCC(C)CC3)nc12 (centres undefined) | – | inactive: 14.3% [at 1.53 µM]
